Assay results published in patent publication US10017542B2, “Antimicrobial peptides and methods of use thereof” (priority 2015, dated 2018).
Where a SMILES comes first, the peptide text is derived from it. Where no end group is shown, it is not given here. [ ]: non-standard residue; d: D form. Orn = NCCC[C@H](N)C(=O)O

Tested on: eight challenge organisms: Enterococcus faecium ATCC 700221; Enterobacter aerogens ATCC 13048; Staphylococcus aureus MRSA ATCC 33591; Streptococcus pneumoniae …
Conditions: MBC = concentration for 99.9% lethality; average across all eight bacteria tested
Description: Sample dilutions ranged from initial sample to 1:2048. Eleven (11) concentrations were tested in duplicate on a 96 well plate by MQA Laboratories. Results are shown in Table 4 as Minimum bactericidal concentration (MBC), which is the concentration of each peptide necessary to yield 99.9% lethality for each of the eight challenge organisms. (The concentrations in Table 4 are averages of the MBC across all bacteria tested in μM).

Molecule	Average MBC [µM]
FAFAFAFKKAFKKFKKAFKKAF [RP442]	15.2
C[C@H](NC(=O)[C@H](Cc1ccccc1)NC(=O)[C@H](C)NC(=O)[C@@H](N)Cc1ccccc1)C(=O)N[C@@H](Cc1ccccc1)C(=O)N[C@@H](CCCN)C(=O)N[C@@H](C)C(=O)N[C@@H](Cc1ccccc1)C(=O)N[C@@H](CCCN)C(=O)N[C@@H](CCCN)C(=O)N[C@@H](C)C(=O)N[C@@H](Cc1ccccc1)C(=O)N[C@@H](CCCN)C(=O)N[C@@H](CCCN)C(=O)N[C@@H](Cc1ccccc1)C(=O)N[C@@H](CCCN)C(=O)N[C@@H](CCCN)C(=O)N[C@@H](C)C(=O)N[C@@H](Cc1ccccc1)C(=O)N[C@@H](CCCN)C(=O)N[C@@H](CCCN)C(=O)N[C@@H](C)C(=O)N[C@@H](Cc1ccccc1)C(=O)O [RP443, FAFAFOAFOOAFOOFOOAFOOAF] (H-FAFAF[Orn]AF[Orn][Orn]AF[Orn][Orn]F[Orn][Orn]AF[Orn][Orn]AF-OH; N-terminus and C-terminus assumed)	11.3
C[C@H](NC(=O)[C@H](Cc1ccccc1)NC(=O)[C@H](C)NC(=O)[C@H](Cc1ccccc1)NC(=O)[C@H](CCCN)NC(=O)[C@H](C)NC(=O)[C@H](Cc1ccccc1)NC(=O)[C@H](CCCN)NC(=O)[C@H](CCCN)NC(=O)[C@H](C)NC(=O)[C@H](Cc1ccccc1)NC(=O)[C@H](CCCN)NC(=O)[C@H](CCCN)NC(=O)[C@H](Cc1ccccc1)NC(=O)[C@H](CCCN)NC(=O)[C@H](CCCN)NC(=O)[C@H](C)NC(=O)[C@H](Cc1ccccc1)NC(=O)[C@H](CCCN)NC(=O)[C@H](CCCN)NC(=O)[C@H](C)NC(=O)[C@@H](N)Cc1ccccc1)C(=O)N[C@@H](Cc1ccccc1)C(=O)O [RP444, FAOOFAOOFOOFAOOFAOFAFAF] (H-FA[Orn][Orn]FA[Orn][Orn]F[Orn][Orn]FA[Orn][Orn]FA[Orn]FAFAF-OH; N-terminus and C-terminus assumed)	7.5
CPGFAKKFAKKFKKFAKKFAKFAFAF [RP438]	5.3
KKKPKPPYLPKPKPPPFFPPKLPPKI [RP440]	18
FAKKFAKKFKKFAKKFAFAFAF [RP445]	10.4
MGFKLRAKIKVRLRAKIKL [RP435, MGFKLRAKIKVRLRAKIKL]	19.6
FAFAFKAFKKAFKKFKKAFKKAFGPC [RP441]	8.8
